Experimental data as given in PubChem BioAssay AID1508623 (National Center for Advancing Translational Sciences (NCATS), 2021).
About 450 (0.94%) of roughly 48,000 compounds were called active. Roughly 19% stayed inconclusive and do not appear here. Calls follow the shape of the dose curve; as a rule, active = well fitted inhibition curve with a large enough effect; inconclusive = small, poorly fitted or top-dose-only effect; inactive = no such curve, though single readings can be large or run the other way. The list shows a part of the results.

Assay: Primary qHTS for Identification of Small Molecule Inhibitors of Huntingtin Promoter Activity; also: nearly all actives have a fitted effect of over 50% in size
Conditions: HEK293 HTT promoter firefly luciferase reporter (activity 0% = vehicle and -100% = no light), 24 h; series mostly up to 57.5 µM; activity change, negative = inhibition: at the top concentration
Summary of the method: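 HEK293 cells carrying firefly luciferase reporters were seeded at 2,500 per well in Opti-MEM and cultured for 24 h. They were then treated with compounds at up to 57.5 uM final for 24 h at 37 degrees C before Dual-Glo luminescence readout.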

SMILES | activity change, negative = inhibition
COc1ccc(Cn2c(CO)cnc2SCc2cccc(C)c2)cc1 | inactive: 22.5%
COc1ccccc1N1CCN(C(=O)CCS(=O)(=O)c2cc(Br)cc3c2N(C(C)=O)CC3)CC1 | inactive: -13%
Cc1cc(C)c2oc(-c3ccc(C)c(NC(=O)/C=C/c4ccco4)c3)nc2c1 | inactive: -0.973%
Cc1nc(N2CCCC2)ncc1C(=O)N1CCN(c2ccccc2F)CC1 | inactive: -5.37%
COc1cccc(-c2nc(S(=O)(=O)c3ccccc3)c(N3CCC(C)CC3)o2)c1 | inactive: -18.8%
Cc1ccc(C(=O)n2nc(C)c(S(=O)(=O)N3CCOCC3)c2C)cc1C | inactive: -19.4%
Cc1ccc(NC(=O)c2nnn(CC(=O)Nc3ccc(C)c(Cl)c3)c2N)c(C)c1 | inactive: 5.85%
O=c1c2ccccc2nc(-c2ccc(Cl)cc2)n1CCCOc1ccccc1F | inactive: -3.74%
COc1cc(C(=O)NCCc2csc3nc(-c4ccccc4C)nn23)cc(OC)c1OC | inactive: -17.5%
CC(C)c1ccc(NC(=O)CC2Oc3ccccc3NC2=O)cc1 (stereo not drawn) | inactive: -20.7%
O=C(OC1C[C@H]2CC[C@@H](C1)[N+]21CCCC1)C(O)(c1ccccc1)c1ccccc1 (stereo partly drawn) | inactive: 38.6%
Cc1ccc(Cl)cc1NC(=O)CN1C(=O)COc2ccc(S(=O)(=O)N3CCCCCC3)cc21 | inactive: -19.4%
COc1ccccc1CCNC(=O)CCc1c(C)c2cc3c(C)c(C)oc3cc2oc1=O | inactive: -2.85%
Cc1ccc(NC(=O)C(=O)NCC(c2ccc3c(c2)OCO3)N2CCN(c3ccccc3)CC2)cc1 (stereo not drawn) | inactive: -1.33%
CCN(C(=O)C(Cc1ccccc1)NS(=O)(=O)c1cccc2nsnc12)c1ccccc1 (stereo not drawn) | inactive: -31.1%
COc1ccc(NC(=O)CSc2nc(-c3ccc(F)cc3)c3cccc(C)c3n2)cc1 | inactive: -2.89%
COc1ccc(CCNC(=O)c2ccc(Cn3c(=O)c4ccccc4n(Cc4ccc(C)cc4)c3=O)cc2)cc1OC | inactive: 4.01%
Cc1ccc2nc(CN3CCN(C(=O)Nc4ccc(C)c(F)c4)CC3)oc2c1 | inactive: -18.8%
COCCCn1c(SCC(=O)Nc2ccccc2OC)nc2c(sc3ccccc32)c1=O | inactive: 11.1%
CCCCN(C)CCCNC(=O)c1cc(-c2cccnc2)nc2ccccc12 | inactive: -20.9%
COC(=O)c1ccc(OC)c(Cn2c(=O)n(-c3cccc(Cl)c3)c(=O)c3c4c(sc32)CN(C(C)=O)CC4)c1 | inactive: -14.5%
COc1ccc(-c2oc3ncn4nc(COc5ccccc5C)nc4c3c2-c2ccc(OC)cc2)cc1 | inactive: -1.42% [at 11.5 µM]
CCOC(=O)C1CCCN(C(=O)Cn2ncn3c(cc4sc(CC)cc43)c2=O)C1 (stereo not drawn) | inactive: -17.2%
O=C(Nc1ccc(F)cc1)[C@@H](c1ccccc1)N1Cc2ccccc2C1=O | inactive: -9.23%

SMILES | activity change, negative = inhibition
CCC(C)NC(=O)c1[nH]c2cc(C)ccc2c1Sc1ccc(Cl)cc1 (stereo not drawn) | inactive: 31.4%
CCOc1cc2[nH]c(=O)n(CCCCC(=O)N3CCN(c4ccccc4)CC3)c(=O)c2cc1OCC | inactive: -14.6%
Cc1cccc(C)c1OCC(=O)Nc1c(C(=O)c2ccc(Br)cc2)oc2ccccc12 | inactive: 0.397%
COc1ccc2oc(=O)c(-c3cn4c(n3)sc3cc(F)ccc34)cc2c1 | inactive: -10.4%
CCCn1c2ccccc2c2cnn(CC(=O)N(Cc3ccccc3)C(C)C)c(=O)c21 | inactive: -1.65%
CCCCOc1ccc(S(=O)(=O)NCc2csc(-c3ccc(OC)cc3)n2)cc1 | inactive: -28.5%
COc1ccc(CC(=O)NCC(c2cccs2)S(=O)(=O)c2ccc(Cl)cc2)cc1 (stereo not drawn) | inactive: -21.4%
CCN(CC)CC1CCCCN1CC(=O)N1c2ccccc2C(=O)Nc2cccnc21 (stereo not drawn) | inactive: 5.13%
CCC(C(=O)Nc1cc(OC)ccc1OC)n1c(C)c2cnn(-c3ccccc3)c(=O)c2c1C (stereo not drawn) | inactive: -16.8%
COc1ccc(-n2ccn(CC(=O)NCc3ccc(C)cc3)c(=O)c2=O)cc1OC | inactive: -0.43%
Cc1ccc(S(=O)(=O)NCCc2nnc3ccc(SCc4ccc(F)cc4)nn23)cc1 | inactive: -23.6%
Cc1ccc2oc(C(=O)Nc3cccc(-c4nc5ccccc5s4)c3)c(C)c2c1 | inactive: 3.73%
Cc1ccc(Nc2ncc(C(=O)N3CCN(c4cccc(Cl)c4)CC3)c3ccccc23)cc1Cl | inactive: -3.19%
COc1ccccc1Cn1cc(C(=O)c2ccc(F)cc2)c(=O)c2cc3c(cc21)OCO3 | inactive: 9.85%
COc1ccccc1C(=O)c1cn(CC(=O)Nc2ccccc2F)c2nc(C)ccc2c1=O | inactive: 1.97%
CC(C)(C)c1ccc(C(=O)NC2(C(F)(F)F)C(=O)Nc3c2c(=O)[nH]c(=O)n3-c2ccccc2)cc1 (stereo not drawn) | inactive: -13.1% [at 11.5 µM]
Cc1cccn2c(=O)c3cc(C(=O)NCc4cccnc4)c(=N)n(CCCO)c3nc12 | inactive: -12.7%
Cc1sc2ncn(CC(=O)N3CCN(c4ccc(Cl)cc4)CC3)c(=O)c2c1S(=O)(=O)N1CCN(c2ncccn2)CC1 | inactive: -4.3%
COc1ccc(NC(=O)Cn2c(=O)n(-c3ccc(C)cc3)c(=O)c3c2cnn3C)cc1 | inactive: -11.7%
O=C(Nc1ccc2nc(SCC(=O)N3CCCC3)sc2c1)c1cccc(Cl)c1 | inactive: -14.3%
CCN1CCCC1=O | inactive: 1.77%
CC(C)CCNC(=O)C1CCN(c2nc3ccc(Cl)cc3[nH]2)CC1 | inactive: -1.77%
COc1ccc(C)cc1NC(=O)c1ccc(=O)n(Cc2ccccc2)c1 | inactive: -13.1%
CCOC(=O)c1c(C)[nH]c(C)c1S(=O)(=O)N(C)CC(=O)Nc1ccc(C)c(N(C)C)c1 | inactive: -32.8%
